At least one read-out could not be matched to a standard name with certainty.
Each molecule was assayed on HCT15 cells. Settings: ratio of IC50 without Verapamil to IC50 with Verapamil.
Format: cell-based, human
Method: To test the ability of the disclosed tubulysin payloads to kill human cell lines, an in vitro cytotoxicity assay was performed. In vitro cytotoxicity of the disclosed payloads, as well as reference compounds, were evaluated using the CellTiter-Glo Assay Kit (Promega, Cat #G7573), in which the quantity of ATP present is used to determine the number of viable cells in culture. For the assay, C4-2, HEK293, or T47D cells were seeded at 4000 cells/well on Nunclon white 96-well plates in complete growth medium (DME high glucose:Ham's F12 at 4:1, 10% FBS, 100 units/ml Penicillin, 100 ug/ml streptomycin, 53 ug/ml glutatmine, 10 ug/ml insulin, 220 ng/ml biotin, 12.5 pg/ml T3, 12.5 ug/ml Adenine, 4 ug/ml transferrin for C42 cells; DME high glucose, 10% FBS, 100 units/ml Penicillin, 100 ug/ml streptomycin, 53 ug/ml glutatmine for HEK293; RPMI, 10% FBS, 100 units/ml Penicillin, 100 ug/ml streptomycin, 53 ug/ml glutatmine, 10 ug/ml insulin, 10 mM HEPEs, 200 nM Sodium Pyruvate for T47D cells) and grown overnight at 37° C. in 5% CO2. For cell viability curves, 1:3 serially diluted payloads were added to the cells at final concentrations ranging from 100 nM to […], including a no treatment control group, and were then incubated for 5 days. After the 5-day incubation, cells were incubated at room temperature with 100 μL of CellTiter-Glo reagents for 10 minutes. Relative luminescence units (RLU) were determined on a Victor plate reader (PerkinElmer). The IC50 values were determined from a four-parameter logistic equation over a 10-point response curve (GraphPad Prism). All IC50 values are expressed in molar (M) concentration. The percent cell killing (% kill) at the maximum concentration tested was estimated from the following formula (100−% viable cells). Averages±standard deviation (SD) are included where replicate experiments were performed.
In vitro cytotoxicity of the disclosed payloads as well as reference compounds were evaluated similarly as described above except using 1000 HCT15 cells, a colorectal carcinoma cell line, in growth medium (RPMI, 10% FBS, 100 units/ml Penicillin, 100 ug/ml streptomycin, 53 ug/ml glutatmine) with or without 5 ug/mL of Verapamil.

First: CC[C@H](C)[C@H](NC(=O)[C@H]1CCCCN1C)C(=O)N(CCCCc1cn(-c2ccccc2)nn1)[C@H](C[C@@H](OC(C)=O)c1nc(C(=O)N[C@@H](Cc2ccc(N)cc2)CC(C)(C)C(=O)O)cs1)C(C)C [IVp, (S)-4-(2-((1R,3R)-1-acetoxy-4-methyl-3-((2S,3S)-3-methyl-2-((R)-1-methylpiperidine-2-carboxamido)-N-(4-(1-phenyl-1H-1,2,3-triazol-4-yl)butyl)pentanamido)pentyl)thiazole-4-carboxamido)-5-(4-aminophenyl)-2,2-dimethylpentanoic acid]
Second: CC[C@H](C)[C@H](NC(=O)[C@H]1CCCCN1C)C(=O)N(CCCCc1c[nH]nn1)[C@H](C[C@@H](OC(C)=O)c1nc(C(=O)N[C@@H](Cc2ccc(N)cc2)CC(C)(C)C(=O)O)cs1)C(C)C [IVj, (S)-4-(2-((1R,3R)-3-((2S,3S)—N-(4-(1H-1,2,3-triazol-5-yl)butyl)-3-methyl-2-((R)-1-methylpiperidine-2-carboxamido)pentanamido)-1-acetoxy-4-methylpentyl)thiazole-4-carboxamido)-5-(4-aminophenyl)-2,2-dimethylpentanoic acid]
The “HCT15 IC50/HCT-15 + Verapamil IC50” value of the first is higher: 2.8 for the first, 1.4 for the second.

Compared with CCCCCCN(C(=O)[C@@H](NC(=O)[C@H]1CCCCN1C)[C@@H](C)CC)[C@H](C[C@@H](OC(C)=O)c1nc(C(=O)N[C@H](Cc2ccc(N)c(F)c2)CC(C)(C)C(=O)O)cs1)C(C)C [IVvA, 4-({2-[(1R,3R)-1-(Acetyloxy)-3-[(2S,3S)—N-hexyl-3-methyl-2-{[(2R)-1-methylpiperidin-2-yl]formamido}pentanamido]-4-methylpentyl]-1,3-thiazol-4-yl}formamido)-5-(4-amino-3-fluorophenyl)-2,2-dimethylpentanoic acid], CCCCCCN(C(=O)[C@@H](NC(=O)[C@H]1CCCCN1C)[C@@H](C)CC)[C@H](C[C@@H](OC(C)=O)c1nc(C(=O)N[C@@H](Cc2ccc(N)c(F)c2)CC(C)(C)C(=O)O)cs1)C(C)C [IVvB, 4-({2-[(1R,3R)-1-(Acetyloxy)-3-[(2S,3S)—N-hexyl-3-methyl-2-{[(2R)-1-methylpiperidin-2-yl]formamido}pentanamido]-4-methylpentyl]-1,3-thiazol-4-yl}formamido)-5-(4-amino-3-fluorophenyl)-2,2-dimethylpentanoic acid] is lower in “HCT15 IC50/HCT-15 + Verapamil IC50” value: 2.7 for the first, 1.3 for the second.

First: CCCCCCON(C(=O)[C@@H](NC(=O)[C@H]1CCCCN1C)[C@@H](C)CC)[C@H](C[C@@H](OC(=O)NCCC)c1nc(C(=O)N[C@@H](Cc2ccc(O)cc2)C[C@H](C)C(=O)O)cs1)C(C)C [VIc, (2S,4R)-5-(4-Hydroxyphenyl)-4-(2-((7R,9R)-9-isopropyl-10-((2S,3S)-3-methyl-2-((R)-1-methylpiperidine-2-carboxamido)pentanoyl)-5-oxo-6,11-dioxa-4,10-diazaheptadecan-7-yl)thiazole-4-carboxamido)-2-methylpentanoic acid]
Second: CCCCCCON(C(=O)[C@@H](NC(=O)[C@H]1CCCCN1C)[C@@H](C)CC)[C@H](C[C@@H](OC(=O)NC)c1nc(C(=O)N[C@@H](Cc2ccc(O)cc2)C[C@H](C)C(=O)O)cs1)C(C)C [VIa, (2S,4R)-5-(4-Hydroxyphenyl)-4-(2-((5R,7R)-7-isopropyl-8-((2S,3S)-3-methyl-2-((R)-1-methylpiperidine-2-carboxamido)pentanoyl)-3-oxo-4,9-dioxa-2,8-diazapentadecan-5-yl)thiazole-4-carboxamido)-2-methylpentanoic acid]
The “HCT15 IC50/HCT-15 + Verapamil IC50” value of the first is higher: 46.3 for the first, 16.6 ± 9.9 for the second.

First: C#CCCCON(C(=O)[C@@H](NC(=O)[C@H]1CCCCN1C)[C@@H](C)CC)[C@H](C[C@@H](OC(C)=O)c1nc(C(=O)N[C@@H](Cc2ccc(F)cc2)CC(C)(C)C(=O)O)cs1)C(C)C [Vd, (4S)-4-({2-[(1R,3R)-1-(Acetyloxy)-4-methyl-3-[(2S,3S)-3-methyl-2-{[(2R)-1-methylpiperidin-2-yl]formamido}-N-(pent-4-yn-1-yloxy)pentanamido]pentyl]-1,3-thiazol-4-yl}formamido)-5-(4-fluorophenyl)-2,2-dimethylpentanoic acid]
Second: C#CCCCCN(C(=O)[C@@H](NC(=O)[C@H]1CCCCN1C)[C@@H](C)CC)[C@H](C[C@@H](OC(C)=O)c1nc(C(=O)N[C@@H](Cc2ccccc2)CC(C)(C)C(=O)O)cs1)C(C)C [IVb, (4S)-4-({2-[(1R,3R)-1-(Acetyloxy)-3-[(2S,3S)—N-(hex-5-yn-1-yl)-3-methyl-2-{[(2R)-1-methylpiperidin-2-yl]formamido}pentanamido]-4-methylpentyl]-1,3-thiazol-4-yl}formamido)-2,2-dimethyl-5-phenylpentanoic acid]
The “HCT15 IC50/HCT-15 + Verapamil IC50” value of the first is higher: 5.5 for the first, 1.5 for the second.

C#CCCCCN(C(=O)[C@@H](NC(=O)[C@H]1CCCCN1C)[C@@H](C)CC)[C@H](C[C@@H](OC(C)=O)c1nc(C(=O)N[C@@H](Cc2ccc(N)cc2)C[C@H](C)C(=O)O)cs1)C(C)C [IVg, (2S,4R)-4-({2-[(1R,3R)-1-(Acetyloxy)-3-[(2S,3S)—N-(hex-5-yn-1-yl)-3-methyl-2-{[(2R)-1-methylpiperidin-2-yl]formamido}pentanamido]-4-methylpentyl]-1,3-thiazol-4-yl}formamido)-5-(4-aminophenyl)-2-methylpentanoic acid] and [2H]c1cc(C[C@@H](CC(C)(C)C(=O)O)NC(=O)c2csc([C@@H](C[C@H](C(C)C)N(CCCCC#C)C(=O)[C@@H](NC(=O)[C@H]3CCCCN3C)[C@@H](C)CC)OC(C)=O)n2)cc([2H])c1N [IVr, (S)-4-(2-((1R,3R)-1-Acetoxy-3-((2S,3S)—N-(hex-5-yn-1-yl)-3-methyl-2-((R)-1-methylpiperidine-2-carboxamido)pentanamido)-4-methylpentyl)thiazole-4-carboxamido)-5-(4-aminophenyl-3,5-d2)-2,2-dimethylpentanoic acid] are the same in “HCT15 IC50/HCT-15 + Verapamil IC50” value: 1.4 for the first, 1.4 for the second.

In the case of CCCC(=O)OCN(C(=O)[C@@H](NC(=O)[C@H]1CCCCN1C)[C@@H](C)CC)[C@H](C[C@@H](OC(C)=O)c1nc(C(=O)N[C@@H](Cc2ccc(O)cc2)C[C@H](C)C(=O)O)cs1)C(C)C [reference compound], the “HCT15 IC50/HCT-15 + Verapamil IC50” value was 4.0.

With CCCCCCNC(=O)O[C@H](C[C@H](C(C)C)N(OCCCCCC)C(=O)[C@@H](NC(=O)[C@H]1CCCCN1C)[C@@H](C)CC)c1nc(C(=O)N[C@@H](Cc2ccc(O)cc2)C[C@H](C)C(=O)O)cs1 [VIe, (2S,4R)-5-(4-Hydroxyphenyl)-4-(2-((9R,11R)-9-isopropyl-8-((2S,3S)-3-methyl-2-((R)-1-methylpiperidine-2-carboxamido)pentanoyl)-13-oxo-7,12-dioxa-8,14-diazaicosan-11-yl)thiazole-4-carboxamido)-2-methylpentanoic acid] the “HCT15 IC50/HCT-15 + Verapamil IC50” value was greater than 338.6.
